Sequences with one replicate were seen in a single cluster, so their values are uncertain.
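Further: ATP exposure 15 min at 22 °C before imaging.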

The data set relates to ATP. Kind of data set: switch fluorescence ratio, 500 uM ATP over buffer (Cy3 cluster intensity, sum of 5 cycles each) (fold (ratio)); higher = stronger signal-on switching upon ATP binding; sequences stand for … in TCGTCGGCAGCGTCAGATGTGTATAAGAGACAGTTTTTTTTTTTTTTTTTTTTTTTTT…TC. To be noted: aptamer strand: ATP DNA aptamer (quencher-CACCTGGGGGAGTATTGCGGAGGAAGG + anchor), 100 nM annealed; ATP concentration: 500 uM; one replicate. The essentials: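 Cy3-labelled switching-strand clusters on a modified Illumina MiSeq flow-cell were annealed to 100 nM quencher-labelled ATP aptamer and imaged first in selection buffer, then after 15 min with 500 uM ATP at 22 °C. NaOH stripping and re-annealing separated each of five buffer/ATP cycles, and clusters outside 100-1000 RFU were excluded. The fluorescence ratio sums target-cycle Cy3 intensity over buffer-cycle Cy3 intensity per cluster and averages it per switch-domain sequence.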
In the case of TAAGTGAAGG, the switch fluorescence ratio was 1.01.
Under GAGTCGAAAG stands 0.981.
As for GGACTACGAC, the switch fluorescence ratio was 1.11.
Under CGGCGGGGCG stands 0.997.
In the case of GCTGTGCTAA, the switch fluorescence ratio worked out at 1.05.
On to TAACCGTATG, for which the switch fluorescence ratio came to 1.03.
The same measure for GTATGGTCAA: 0.975; for AAGTCCTGTG: 0.986.
In the case of GATCTAGAGT, the switch fluorescence ratio came to 0.982.
Under AGGAATTCGC stands 0.961; under GTACCATTAA, 1.01; under AGGCTGTATC, 1.06.
Consider ATGGACGCAG, for which the switch fluorescence ratio is 0.952.
Under GCTATAGAGC stands 1; under CTGGGCGGAC, 1.26; under TTGCACAGGC, 1.02.
The same measure for CGGCACGGCA: 0.988; for CGGCTTGACG: 0.948; for CCGAATCCGG: 1.06.
The same measure for ATCCGAGGAA: 1.03; for GTAATGCATT: 0.977.
On to CATAATAGTT, for which the switch fluorescence ratio came to 1.
Under GTATTAGGTT stands 0.98; under GCGTTGGTTG, 1.03; under TAGAATAGC, 0.999.
With ACTCTTTAGC, the switch fluorescence ratio was determined as 1.02.
Under GCCCCGCTCT stands 1.06; under ATCCTTTTTA, 1.04.
Consider CATGGTGGTG, for which the switch fluorescence ratio amounted to 1.01.
Under ACACCCCCTC stands 1.61; under TAATATAGTA, 0.96.
The same measure for GATCTGCGTT: 0.985.
In the case of TGATATTGCC, the switch fluorescence ratio was 1.09.
The same measure for CAGCGGCTTC: 1.03; for ATCCCATCGC: 1.08.
The same measure for AAACGCCTAG: 1.01; for CTTGTTGGCC: 1.
As for CATGACGGT, the switch fluorescence ratio worked out at 0.981.
Turning to AGTACTAGTG, the switch fluorescence ratio came to 1.
The same measure for TTTGTTTAC: 1.02.
Regarding CATTGAATGA, the switch fluorescence ratio came to 1.04.
In the case of CAGTATAAGT, the switch fluorescence ratio is 1.01.
Under CTAAGAAATA stands 1.04.
Consider ATGTTTAATA, for which the switch fluorescence ratio was determined as 1.03.
As for GGCGGTGCTG, the switch fluorescence ratio came out at 0.956.
Consider TGCGTTTTTT, for which the switch fluorescence ratio was 1.
AATTCCCGGG: the switch fluorescence ratio was 0.963.
The same measure for TTATGGATG: 1.
With TGTGTGTCAG, the switch fluorescence ratio was determined as 0.979.
The same measure for TTTGTCAACG: 1.02; for CATTCTGGTA: 0.956; for TAGGAACTTG: 1.02.
In the case of GATGCTCGAC, the switch fluorescence ratio came to 0.995.
As for TAGGAAAACG, the switch fluorescence ratio is 1.05.
GGAACGCGGG: the switch fluorescence ratio was found to be 0.956.
Under TGGGACGAAT stands 0.971; under CTGGAGACCG, 1.
The same measure for CTTATTGTAC: 1.07.
Under TTTGATCCAA stands 1.03; under AAGAATTGCA, 0.977.
As for TTTTAGGAAA, the switch fluorescence ratio is 0.964.
The same measure for CGGCGGACTA: 0.993; for ATTAAACTTT: 0.955.
Take TGTAACAGCC: the switch fluorescence ratio turned out to be 2.29.
Turning to CAATCTTGCA, the switch fluorescence ratio worked out at 1.01.
Under ATGATTGGGT stands 0.98.
Under ACTCAGAAAG stands 1.1.
As for ACGTTACGTT, the switch fluorescence ratio was 1.4.
For AATGGGTCCA, the switch fluorescence ratio worked out at 0.956.
Under CGATATACT stands 1.57; under TTGAGGAACT, 0.986; under GGAAGGACAC, 1.25.
The same measure for TTGATTTAT: 0.985.
Take TTAAGGTAGA: the switch fluorescence ratio stood at 1.14.
The same measure for TGACGAGGTA: 1.01.
Take TGGGCGAGTA: the switch fluorescence ratio is 1.01.
Regarding CGCATAAGTT, the switch fluorescence ratio stood at 1.38.
GATATCGCAT: the switch fluorescence ratio is 1.19.
Take GACCGCGTAA: the switch fluorescence ratio is 1.39.
As to CCATGTCCGA, the switch fluorescence ratio amounted to 1.02.
GGGCATTGAT: the switch fluorescence ratio is 1.02.
Under CCATCCCTA stands 1.09; under TTGGCCTAAG, 1.01.
For AAAGCCTGGT, the switch fluorescence ratio was found to be 0.969.
For the sequence ACTTGCTAAA, the switch fluorescence ratio was 1.
For TTGCTGCG, the switch fluorescence ratio was 0.953.
The same measure for AGAAAGCTCG: 1.04; for CGAGCGGCCT: 1.02.
Turning to ATCCCTATAA, the switch fluorescence ratio worked out at 1.1.
Take TTTGGACAA: the switch fluorescence ratio was 1.06.
The same measure for GCTCTAGCAC: 1.07; for CATACTAGTC: 1.1; for TCAGTTACCT: 1.19.
In the case of GTGATCAGGA, the switch fluorescence ratio is 1.
Regarding GTGCTAAGCG, the switch fluorescence ratio was found to be 1.03.
The same measure for ATATATTCAT: 0.981; for ATGACAGTCT: 1.09; for ATTTTGTCC: 0.972.
With ATCCTTGCAG, the switch fluorescence ratio is 1.06.
Consider GTATACACGG, for which the switch fluorescence ratio is 1.03.
The same measure for TAAGAAAAGA: 1; for GATCTCTTGT: 0.992; for CCGCTGTGTT: 1.41.
GTCCAGGGAA: the switch fluorescence ratio is 1.1.
Under GTCGACTTAT stands 1.
Under CACAATGCCA stands 1.02; under TATACGAGTG, 0.965; under ACGGGTTAGT, 1.03.
The same measure for TATACCGGAG: 1.11.
As for ATATGAGGTC, the switch fluorescence ratio turned out to be 0.934.
Take TGCCGCCGGA: the switch fluorescence ratio stood at 1.04.
Under CTTTCATGCA stands 0.995; under GAAAGTATTC, 0.977; under GAGCTCTTAA, 0.968.
As for TTGCTCAAGT, the switch fluorescence ratio amounted to 1.03.
As to ACCCTGCCAG, the switch fluorescence ratio is 1.01.
As for ATGACGCTTC, the switch fluorescence ratio came out at 0.977.
Under GGTGTAGGTA stands 1.03.
The same measure for GCTTAGTTGC: 0.988; for AGCTCGCCCC: 1.13.

The values are drawn from the supplement of paper PMC10126150.
